Among the data in article PMC9911399, “Two distinct binding modes provide the RNA-binding protein RbFox with extraordinary sequence specificity” are binding signal values, retold here.

Changes are numbered by the printed parent chain; changes in the protein carry UniProt numbers. The list shows a part of the results.

First the molecules themselves.
T1: RBFOX1 RRM RbFoxmut (Fox-RRM*) (Homo sapiens, UniProt Q9NWB1 109-208, R118D;E147R;N151S;E152T)
T1 sequence: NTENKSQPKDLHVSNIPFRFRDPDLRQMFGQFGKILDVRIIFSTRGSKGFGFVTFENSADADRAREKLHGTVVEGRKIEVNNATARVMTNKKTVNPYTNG

B1: GUUGGAU (DNA:RNA)
RNA: GGGAGACCGGAAUUCAGAUUGUCCGUUGGAUUUAAAUCCCGUCGUAGCCACCA
DNA 1: CAATCTGAATTCCGGTCTCCC
DNA 2: TGGTGGCTACGACGGGATT
B2: AACUUUG (DNA:RNA)
RNA: GGGAGACCGGAAUUCAGAUUGUCCAACUUUGUUAAAUCCCGUCGUAGCCACCA
DNA 1: CAATCTGAATTCCGGTCTCCC
DNA 2: TGGTGGCTACGACGGGATT
B3: UGCAUAC (DNA:RNA)
RNA: B2 RNA with A25U, A26G, U28A, U30A, G31C
DNA 1: CAATCTGAATTCCGGTCTCCC
DNA 2: TGGTGGCTACGACGGGATT
B4: UUAGUUA (DNA:RNA)
RNA: B2 RNA with A25U, A26U, C27A, U28G, G31A
DNA 1: CAATCTGAATTCCGGTCTCCC
DNA 2: TGGTGGCTACGACGGGATT
B5: ACUCGAA (DNA:RNA)
RNA: B1 RNA with G25A, U26C, G28C, U31A
DNA 1: CAATCTGAATTCCGGTCTCCC
DNA 2: TGGTGGCTACGACGGGATT
B6: UGACAGA (DNA:RNA)
RNA: GGGAGACCGGAAUUCAGAUUGUCCUGACAGAUUAAAUCCCGUCGUAGCCACCA
DNA 1: CAATCTGAATTCCGGTCTCCC
DNA 2: TGGTGGCTACGACGGGATT
B7: CCUUUGC (DNA:RNA)
RNA: B2 RNA with A25C, A26C, C27U, U30G, G31C
DNA 1: CAATCTGAATTCCGGTCTCCC
DNA 2: TGGTGGCTACGACGGGATT
B8: CGAAGGC (DNA:RNA)
RNA: B6 RNA with U25C, C28A, A29G, A31C
DNA 1: CAATCTGAATTCCGGTCTCCC
DNA 2: TGGTGGCTACGACGGGATT
B9: UCCAGGU (DNA:RNA)
RNA: B1 RNA with G25U, U26C, U27C, G28A, A30G
DNA 1: CAATCTGAATTCCGGTCTCCC
DNA 2: TGGTGGCTACGACGGGATT
B10: UUUGCAG (DNA:RNA)
RNA: B1 RNA with G25U, G29C, U31G
DNA 1: CAATCTGAATTCCGGTCTCCC
DNA 2: TGGTGGCTACGACGGGATT
B11: UACUAUC (DNA:RNA)
RNA: B2 RNA with A25U, U29A, G31C
DNA 1: CAATCTGAATTCCGGTCTCCC
DNA 2: TGGTGGCTACGACGGGATT
B12: UCGGCGU (DNA:RNA)
RNA: B1 RNA with G25U, U26C, U27G, G29C, A30G
DNA 1: CAATCTGAATTCCGGTCTCCC
DNA 2: TGGTGGCTACGACGGGATT
B13: UCUGCGU (DNA:RNA)
RNA: B1 RNA with G25U, U26C, G29C, A30G
DNA 1: CAATCTGAATTCCGGTCTCCC
DNA 2: TGGTGGCTACGACGGGATT
B14: GGCGAUG (DNA:RNA)
RNA: B2 RNA with A25G, A26G, U28G, U29A
DNA 1: CAATCTGAATTCCGGTCTCCC
DNA 2: TGGTGGCTACGACGGGATT
B15: GUGUGAA (DNA:RNA)
RNA: B1 RNA with U27G, G28U, U31A
DNA 1: CAATCTGAATTCCGGTCTCCC
DNA 2: TGGTGGCTACGACGGGATT
B16: UACCUGA (DNA:RNA)
RNA: B6 RNA with G26A, A27C, A29U
DNA 1: CAATCTGAATTCCGGTCTCCC
DNA 2: TGGTGGCTACGACGGGATT
B17: UAUGAUU (DNA:RNA)
RNA: B1 RNA with G25U, U26A, G29A, A30U
DNA 1: CAATCTGAATTCCGGTCTCCC
DNA 2: TGGTGGCTACGACGGGATT
B18: GUGGGUC (DNA:RNA)
RNA: B1 RNA with U27G, A30U, U31C
DNA 1: CAATCTGAATTCCGGTCTCCC
DNA 2: TGGTGGCTACGACGGGATT
B19: AUCGCUG (DNA:RNA)
RNA: B2 RNA with A26U, U28G, U29C
DNA 1: CAATCTGAATTCCGGTCTCCC
DNA 2: TGGTGGCTACGACGGGATT
B20: ACCACCC (DNA:RNA)
RNA: B2 RNA with A26C, U28A, U29C, U30C, G31C
DNA 1: CAATCTGAATTCCGGTCTCCC
DNA 2: TGGTGGCTACGACGGGATT
B21: UCGGAGG (DNA:RNA)
RNA: B6 RNA with G26C, A27G, C28G, A31G
DNA 1: CAATCTGAATTCCGGTCTCCC
DNA 2: TGGTGGCTACGACGGGATT
B22: AAGCUAU (DNA:RNA)
RNA: B2 RNA with C27G, U28C, U30A, G31U
DNA 1: CAATCTGAATTCCGGTCTCCC
DNA 2: TGGTGGCTACGACGGGATT
B23: AUUUCAG (DNA:RNA)
RNA: B2 RNA with A26U, C27U, U29C, U30A
DNA 1: CAATCTGAATTCCGGTCTCCC
DNA 2: TGGTGGCTACGACGGGATT
B24: GGCAAAG (DNA:RNA)
RNA: B2 RNA with A25G, A26G, U28A, U29A, U30A
DNA 1: CAATCTGAATTCCGGTCTCCC
DNA 2: TGGTGGCTACGACGGGATT
B25: GAGUUGG (DNA:RNA)
RNA: B2 RNA with A25G, C27G, U30G
DNA 1: CAATCTGAATTCCGGTCTCCC
DNA 2: TGGTGGCTACGACGGGATT
B26: CCCUGGA (DNA:RNA)
RNA: B2 RNA with A25C, A26C, U29G, U30G, G31A
DNA 1: CAATCTGAATTCCGGTCTCCC
DNA 2: TGGTGGCTACGACGGGATT
B27: AGAGACC (DNA:RNA)
RNA: B6 RNA with U25A, C28G, G30C, A31C
DNA 1: CAATCTGAATTCCGGTCTCCC
DNA 2: TGGTGGCTACGACGGGATT
B28: AUUCUAG (DNA:RNA)
RNA: B2 RNA with A26U, C27U, U28C, U30A
DNA 1: CAATCTGAATTCCGGTCTCCC
DNA 2: TGGTGGCTACGACGGGATT
B29: CACCGCC (DNA:RNA)
RNA: B2 RNA with A25C, U28C, U29G, U30C, G31C
DNA 1: CAATCTGAATTCCGGTCTCCC
DNA 2: TGGTGGCTACGACGGGATT
B30: CGAUAGA (DNA:RNA)
RNA: B6 RNA with U25C, C28U
DNA 1: CAATCTGAATTCCGGTCTCCC
DNA 2: TGGTGGCTACGACGGGATT
B31: UUGAGCA (DNA:RNA)
RNA: B1 RNA with G25U, U27G, G28A, A30C, U31A
DNA 1: CAATCTGAATTCCGGTCTCCC
DNA 2: TGGTGGCTACGACGGGATT

For the experiment, the target named is T1, RBFOX1 RRM RbFoxmut (Fox-RRM*). Nature of the experiment: EMSA; HiTS-Eq, 1 nM pool, 10 min; buffer printed only for the single-RNA assays: 10 mM Tris pH 7.5, 150 mM NaCl, 3.4 mM EDTA, 0.001% NP-40, 30 C. As to conditions: tags: His6 N-terminal (pET28a); label: 5' 32P. Summed up: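 Purified RbFox RRM (wild type or mutant) was equilibrated for 10 min in 50 µL with 1 nM of a 5′-radiolabelled pool of RNA with 7 randomized nucleotides, its flanks annealed to DNA oligonucleotides, across increasing protein concentrations. Free RNA was separated by 8% native PAGE, excised, reverse-transcribed, PCR-barcoded and sequenced on an Illumina HiSeq 2500. Relative association constants came from read-count changes of each variant against the control reaction, normalised to the cognate motif.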
On the technique in general: In EMSA bound probe runs differently from free probe, usually more slowly.
B1: the binding signal is 0.0856 KA relative to UGCAUGU. As to B2, the binding signal was 0.0853 KA relative to UGCAUGU. With B3 the figure was 0.161 KA relative to UGCAUGU; with B4, 0.142 KA relative to UGCAUGU; with B5, 0.103 KA relative to UGCAUGU. With B6 the figure was 0.0658 KA relative to UGCAUGU; with B7, 0.109 KA relative to UGCAUGU.

Consider B8, for which the binding signal is 0.0756 KA relative to UGCAUGU.

Consider B9, for which the binding signal was 0.119 KA relative to UGCAUGU.

As to B10, the binding signal is 0.0931 KA relative to UGCAUGU. With B11 the figure was 0.079 KA relative to UGCAUGU. With B12 the figure was 0.1 KA relative to UGCAUGU. With B13 the figure was 0.128 KA relative to UGCAUGU; with B14, 0.404 KA relative to UGCAUGU; with B15, 0.132 KA relative to UGCAUGU. On to B16, for which the binding signal was 0.0659 KA relative to UGCAUGU. With B17 the figure was 0.0734 KA relative to UGCAUGU; with B18, 0.246 KA relative to UGCAUGU. As for B19, the binding signal is 0.11 KA relative to UGCAUGU. On to B20, for which the binding signal was 0.0531 KA relative to UGCAUGU. With B21 the figure was 0.115 KA relative to UGCAUGU; with B22, 0.102 KA relative to UGCAUGU; with B23, 0.119 KA relative to UGCAUGU. With B24 the figure was 0.0637 KA relative to UGCAUGU; with B25, 0.0898 KA relative to UGCAUGU; with B26, 0.0858 KA relative to UGCAUGU. With B27, the binding signal is 0.0712 KA relative to UGCAUGU. With B28 the figure was 0.123 KA relative to UGCAUGU; with B29, 0.145 KA relative to UGCAUGU; with B30, 0.101 KA relative to UGCAUGU.

Turning to B31, the binding signal was 0.152 KA relative to UGCAUGU.
